# Laboratory results reported in PMC4336329 (PLoS ONE, 2015).
# About 2,200 (0.71%) of roughly 310,000 compounds showed an effect of 50% or more. Effects have a minus sign here. The list shows a part of the results.
# Biological target: human ether-à-go-go-related gene (hERG) potassium channel (human, UniProt Q12809)
# Assay: primary screen, population patch clamp on CHO cells stably expressing hERG
# Chain of human ether-à-go-go-related gene (hERG) potassium channel (Q12809 whole entry, looked up): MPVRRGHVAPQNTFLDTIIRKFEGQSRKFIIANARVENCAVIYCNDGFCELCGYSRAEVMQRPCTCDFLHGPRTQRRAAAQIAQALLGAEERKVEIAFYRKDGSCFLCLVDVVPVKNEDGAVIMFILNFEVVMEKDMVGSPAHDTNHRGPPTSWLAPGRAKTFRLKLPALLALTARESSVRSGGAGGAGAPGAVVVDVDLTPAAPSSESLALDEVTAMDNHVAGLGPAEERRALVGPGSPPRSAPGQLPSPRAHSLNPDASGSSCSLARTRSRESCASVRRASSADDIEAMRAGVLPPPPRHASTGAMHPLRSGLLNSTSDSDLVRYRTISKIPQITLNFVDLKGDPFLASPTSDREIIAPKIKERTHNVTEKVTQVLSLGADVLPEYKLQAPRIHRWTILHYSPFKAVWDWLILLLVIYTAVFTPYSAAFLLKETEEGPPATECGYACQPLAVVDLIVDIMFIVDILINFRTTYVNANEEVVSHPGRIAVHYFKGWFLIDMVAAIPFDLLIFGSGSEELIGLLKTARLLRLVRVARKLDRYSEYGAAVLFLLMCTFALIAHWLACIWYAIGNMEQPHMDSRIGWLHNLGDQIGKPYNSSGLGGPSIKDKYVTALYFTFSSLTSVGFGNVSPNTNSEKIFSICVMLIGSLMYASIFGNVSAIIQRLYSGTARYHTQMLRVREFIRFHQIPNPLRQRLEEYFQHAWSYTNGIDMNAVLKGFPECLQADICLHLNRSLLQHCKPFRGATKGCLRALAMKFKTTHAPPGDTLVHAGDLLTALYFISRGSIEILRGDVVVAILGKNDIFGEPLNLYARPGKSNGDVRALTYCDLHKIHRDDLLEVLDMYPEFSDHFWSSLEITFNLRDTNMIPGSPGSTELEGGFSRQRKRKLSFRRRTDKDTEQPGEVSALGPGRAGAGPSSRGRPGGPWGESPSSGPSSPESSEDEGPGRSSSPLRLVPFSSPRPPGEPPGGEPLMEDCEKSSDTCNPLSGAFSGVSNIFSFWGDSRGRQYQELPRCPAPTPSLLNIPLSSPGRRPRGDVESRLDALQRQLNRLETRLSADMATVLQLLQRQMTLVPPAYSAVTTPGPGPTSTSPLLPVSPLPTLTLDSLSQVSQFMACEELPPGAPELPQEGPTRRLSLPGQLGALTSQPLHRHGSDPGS
row,Compound,"hERG current change (%, negative = inhibition) at 1uM"
1,Cc1ccc(NC(=O)CN2CCc3cc4c(cc3C2)OCCCO4)cc1,10.2%
2,CCc1nnc(NC(=O)C2=CCN(S(=O)(=O)c3ccc(F)cc3)CC2)s1,9.88%
3,O=c1[nH]c(/C(Cl)=C/c2cccc(C(F)(F)F)c2)nc2cc(Cl)ccc12,-8.69%
4,Nc1nc(-c2ccc3c(c2)CCCC3)c(CC(=O)O)s1,15.3%
5,COc1cc(OC)cc(C(=O)Nc2cccc(-c3ccc(N4CCOCC4)nn3)c2)c1,15.8%
6,COc1ccc(NC(=S)N2CCC(c3nc4ccccc4o3)CC2)c(OC)c1,-0.976%
7,CC1(C)Cc2c(cnn2-c2ccccc2)C(=O)/C1=N\NC(=O)c1ccncc1,6.95%
8,COc1cccc(N2C(=O)CC(NNC(=O)c3cccs3)C2=O)c1 (stereo not drawn),-4.51%
9,CCCc1nnc(NC(=O)c2c(O)c3c([nH]c2=O)CCCC3)s1,10.2%
10,CCCCOC1CC(c2ccc(OCc3ccc(OC)cc3)c(OC)c2)N(C)O1 (stereo not drawn),13%
11,CN(C)c1ccc(/C=C2\C(=O)NC(=O)N(Cc3ccc(F)cc3)C2=O)cc1,-1.18%
12,CCOC(=O)N1CCC(NC(=O)c2ccc3c(c2)N=C(CC)c2ccccc2S3)CC1,6.6%
13,O=C(NCC1CCCO1)c1cccc(NS(=O)(=O)c2ccccc2)c1 (stereo not drawn),14.9%
14,COc1ccc(N2CCN(C(=O)CCc3ccccc3)CC2)cc1,10.3%
15,Cc1ccc(C)c(N2CCN(C(=O)CCC(=O)Nc3nnc(CC(C)C)s3)CC2)c1,9.27%
16,Cc1ccc(-n2ncc3c2CC(C)(C)CC3NC(=O)Cc2c(C)noc2C)cc1 (stereo not drawn),-6.36%
17,CC(=O)Nc1ccc(OC(=O)COc2ccc(Br)cc2)cc1,10.9%
18,O=[N+]([O-])c1cc(Cl)ccc1N1CCOCC1,32.8%
19,O=C(Nc1ccc(F)cc1)c1ccc(S(=O)(=O)N2CCCC2)cc1,12.5%
20,O=C(NNC(=O)c1ccc([N+](=O)[O-])cc1Cl)c1ccncc1,-5.45%
21,O=C(CSCc1c(Cl)cccc1Cl)Nc1ccccc1-c1ccccc1,11.4%

row,Compound,"hERG current change (%, negative = inhibition) at 1uM"
1,O=C(NCc1nc2ccccc2[nH]1)C1CCCCC1,9.83%
2,COc1ccc([N+](=O)[O-])cc1C(=O)NC1CCN(Cc2ccccc2)CC1.Cl.O,-19.6%
3,CCOC(=O)NC(=O)c1cn(-c2ccc(OC)cc2)c(=O)[nH]c1=O,10.7%
4,NC(=O)CCN(C(=O)c1cccc(S(=O)(=O)N2CCc3ccccc32)c1)c1ccccc1,8.28%
5,CSC1=N/C(=C\c2ccc(C)cc2)C(=O)S1,-0.743%
6,CCOC(=O)N1CCN(c2cc(NCCC(=O)O)c3c4c(onc24)-c2ccccc2C3=O)CC1,9.16%
7,CCN(CC)S(=O)(=O)c1ccc(N2CCOCC2)c(NC(=O)C2CSC3(C)CCC(=O)N23)c1 (stereo not drawn),-13.9%
8,CC(=O)Nc1ccc(S(=O)(=O)N(C)Cc2ccccc2)cc1,-1.16%
9,COc1ccccc1NC(=O)C1=C(C)NC(=O)NC1c1ccco1 (stereo not drawn),7.09%
10,NS(=O)(=O)c1ccc(NC(=O)c2ccc3c(c2)CCN3S(=O)(=O)c2ccccc2)cc1,15.3%
11,COc1ccc(Nc2nc3ccccc3n2C)cc1,13.1%
12,COc1ccc(NC(=O)CN(C)C(=O)Cc2c(C)nc3ccccc3c2C)cc1,-2.51%
13,CCN1CCN(c2nc(Nc3cccc(OC)c3)nc(N)c2[N+](=O)[O-])CC1,-60.6%
14,C/C(Cl)=C/CSc1nnc2n(N)c(=O)c3ccccc3n12,4.95%
15,Cc1cc(C)c2c(n1)sc1c(=O)n(CC(=O)c3ccccc3)cnc12,6.53%
16,COc1ccc(N(CC(=O)NCc2cccc(OC)c2)S(=O)(=O)c2c(C)noc2C)cc1,-22.4%
17,CCN(CC)C(=O)CSc1nc2ccccc2c(=O)n1CCC(=O)NCc1ccc(F)cc1,0.736%
18,O=C(N/N=C/C1CC=CCC1)c1cc(Br)ccc1O (stereo not drawn),7.54%
19,Cc1ccc(C(=O)Nc2ccc(CN3CCS(=O)(=O)CC3)cc2)cc1C,3.18%
20,CCOCCCNC(=O)c1cc2sc(Cl)cc2n1CC,-6.73%
21,Cc1cc(C)c([C@@H]2C[C@H]3CN(C4CCCC4)C(=O)[C@]34CCCN24)c(-n2cccn2)c1,-71.7%
